The assay has as its target T1, rat synaptobrevin 2 SNARE motif (residues 29-93) (rat, UniProt P63045 part only).
T1 construct: synaptobrevin 2, rat, residues 29-93 (SNARE motif); 2H,13CH3-ILMV-labelled in some samples, unlabelled in others; also called Syb; synaptobrevin SNARE motif; source: E. coli BL21(DE3), purified (as previously described)
The assay can be described thus: 1H-13C HMQC (methyl-TROSY) NMR with lanthanide-induced pseudocontact shifts on the reconstituted complex; SNARE motifs mixed in 1 M NaCl, room temperature overnight, unlabelled fragments in 80% excess; unassembled motifs removed by concentration-dilution with a 30 kDa cutoff; spectra at 25 °C, 20-30 µM SNARE complex in 20 mM Tris (pH 7.4), 200 mM NaCl, 5% D2O. The following applies: both partners purified.

T1 sequence (P63045 29-93): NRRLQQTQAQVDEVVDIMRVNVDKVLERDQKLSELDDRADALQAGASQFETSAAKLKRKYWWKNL

B1: rat syntaxin-1A SNARE motif ([…]) (domain or fragment)
chain: not shown
notes: syntaxin-1A, rat, […] (SNARE motif); 2H,13CH3-ILMV-labelled in some samples, unlabelled in others; also called Syx; syntaxin-1 SNARE motif; source: E. coli BL21(DE3), purified (as previously described)
Turning to B1, the binding result is recorded as “binds”.

Values taken from publication PMC5216067, “Sequence-specific assignment of methyl groups from the neuronal SNARE complex using lanthanide-induced pseudocontact shifts” (Journal of Biomolecular Nmr, 2016).
